Experimental data reported in paper PMC6664820, “Novel natural and synthetic inhibitors of solute carriers SGLT1 and SGLT2” (Pharmacology Research & Perspectives, 2019).
The campaign covered roughly 1,900 compounds. About 40 (2%) showed an effect of 50% or more. This is one part of the list.

What follows are molecules tested against human SGLT1 (hSGLT1) (human, UniProt P13866) (assay: primary screen, percent of control activity; higher = less effect of the substance). Settings: 50 µM.
Design: single well
Description: Two days before the assay, CHO‐wild type and CHO‐hSGLT1 cells were seeded in maintenance medium at 25 000 cells/well in clear‐bottom black 96‐well cell culture plates. Before the assay, cells were washed 3 times with 150 μL/well D‐glucose free DMEM with 0.3% (w/v) BSA. Library compounds at 50 μmol/L (singlicate) prepared in D‐glucose free DMEM with 160 μmol/L 1‐NBD‐glucose and 0.3% (w/v) BSA and negative controls (triplicate) were added at 100 μL/well and placed in a humidified incubator at 37°C with 5% CO2 for 90 minutes. Next, cells were washed 3 times with DMEM with 0.3% (w/v) BSA (150 μL/well). Care was taken to remove all medium after the last wash. Finally, 1‐NBD‐glucose was extracted from the cells by adding 10 μL/well isopropanol and orbital shaking for 5 minutes at 600 rpm, followed by incubation in the dark for 30 minutes. Fluorescence was measured on a Tecan Infinite M200 Microplate Reader (Tecan, Männedorf, Switzerland) with excitation at 445 nm and emission at 525 nm. The amount of 1‐NBD‐glucose taken up by the CHO‐wild type or CHO‐hSGLT1 cells in the presence or absence of test compounds was interpolated from 1‐NBD‐glucose calibration standards. The background uptake by CHO‐wild type was subtracted from the uptake by CHO‐hSGLT1. Background corrected uptake with test compound was expressed as a percentage of corrected uptake without test compound.

human SGLT1 (hSGLT1), sequence (P13866 whole entry, looked up): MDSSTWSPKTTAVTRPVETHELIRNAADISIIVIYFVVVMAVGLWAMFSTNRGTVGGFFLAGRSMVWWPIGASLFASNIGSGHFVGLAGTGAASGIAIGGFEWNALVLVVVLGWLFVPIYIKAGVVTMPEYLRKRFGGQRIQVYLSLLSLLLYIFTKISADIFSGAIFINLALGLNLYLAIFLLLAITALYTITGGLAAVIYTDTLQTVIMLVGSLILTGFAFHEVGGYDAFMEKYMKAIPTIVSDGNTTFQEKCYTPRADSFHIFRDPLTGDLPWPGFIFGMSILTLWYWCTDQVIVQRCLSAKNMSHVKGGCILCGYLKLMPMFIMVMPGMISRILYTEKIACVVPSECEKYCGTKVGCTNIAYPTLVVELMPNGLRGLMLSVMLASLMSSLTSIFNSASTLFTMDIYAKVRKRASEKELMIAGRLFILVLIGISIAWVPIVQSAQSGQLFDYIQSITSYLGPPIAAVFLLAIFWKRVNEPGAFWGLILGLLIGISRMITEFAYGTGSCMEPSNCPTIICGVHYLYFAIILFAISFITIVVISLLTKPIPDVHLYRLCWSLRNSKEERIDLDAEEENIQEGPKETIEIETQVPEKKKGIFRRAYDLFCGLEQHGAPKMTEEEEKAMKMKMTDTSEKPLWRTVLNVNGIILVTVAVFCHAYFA

Row | Structure (SMILES) | NORMALIZED SGLT1 ACTIVITY (%)
1 | Cc1ccsc1/C=C/C1=NCCCN1C.O=C(O)CC(O)(CC(=O)O)C(=O)O | 91
2 | CCCC(C(=O)OCCN(CC)CC)(c1ccccc1)c1ccccc1.Cl | 85
3 | CNCCCN1c2ccccc2CCc2ccccc21.Cl | 135
4 | COC(=O)[C@]1(C)CCC[C@]2(C)c3ccc(C(C)C)cc3C(=O)CC12 (stereo partly drawn) | 89
5 | CCCC(=O)Nc1ccc(OCC(O)CNC(C)C)c(C(C)=O)c1.Cl (stereo not drawn) | 117
6 | CC(=O)O[C@H]1CC[C@@]2(C)C(C[C@H](OC(C)=O)[C@@]3(C)C4=CC(=O)OC(c5ccoc5)[C@]4(C)CCC23)C1(C)C (stereo partly drawn) | 111
7 | C=C1C/C=C(\C)CC[C@@H]2[C@@H]1CC2(C)C | 120
8 | Cn1c(=O)c2c(ncn2CCO)n(C)c1=O | 122
9 | COc1c2c(c(CC=C(C)C)c3oc(=O)c(-c4ccc(O)cc4)c(O)c13)OC(C)(C)C=C2 | 279
10 | COc1cc(O)ccc1C(C)=O | 92
11 | COc1ccc2c(c1)CCC1C2CC[C@@]2(C)C1CC[C@@H]2O (stereo partly drawn) | 172
12 | CCCCC(CC)CN1CN(CC(CC)CCCC)CC(C)(N)C1 (stereo not drawn) | 67
13 | CC(C)c1c(O)c(-c2cc3c(c(C(C)C)c2O)CCC2C(C)(C)CCC[C@]32C)cc2c1CCC1C(C)(C)CCC[C@]21C (stereo partly drawn) | 91
14 | CCC1(CC)C(=O)C=CNC1=O | 99
15 | O=C1C(Cl)=C(Cl)C(=O)C(Cl)=C1Cl | 108
16 | CN1C2CCC1CC(OC(c1ccccc1)c1ccccc1N)C2 (stereo not drawn) | 61
17 | Cl[C@H]1[C@H](Cl)[C@@H](Cl)[C@@H](Cl)[C@H](Cl)[C@H]1Cl | 115
18 | COc1cc(C(=O)NCc2ccc(OCCN(C)C)cc2)cc(OC)c1OC.Cl | 136
19 | COc1cc(Cc2cnc(N)nc2N)cc(OC)c1OC | 121
20 | O=C(O)C1CC([C@@H]2CCCCN2)CN2CCCCC12 (stereo partly drawn) | 113
21 | COc1ccccc1OCCNCC(O)COc1cccc2[nH]c3ccccc3c12 (stereo not drawn) | 124
22 | Cc1ccccc1N1C(=O)c2cc(S(N)(=O)=O)c(Cl)cc2NC1C (stereo not drawn) | 81
23 | CC[C@@H](C(=O)[C@@H](C)[C@@H](O)[C@H](C)[C@@H]1O[C@@H]([C@@H](CC)C(=O)[O-])CC[C@@H]1C)[C@H]1OC2(C=C[C@@H](O)[C@]3(CC[C@@](C)([C@H]4CC[C@](O)(CC)[C@H](C)O4)O3)O2)[C@H](C)C[C@@H]1C.[Na+] (stereo partly drawn) | 301

Row | Structure (SMILES) | NORMALIZED SGLT1 ACTIVITY (%)
24 | C[N+](C)(C)CC(O)CC(=O)O.[Cl-] (stereo not drawn) | 111
25 | CC(CCC(=O)O)[C@H]1CCC2C3C[C@H](O)[C@@H]4C[C@H](O)CC[C@]4(C)C3CC[C@@]21C (stereo partly drawn) | 218
26 | O=c1oc2ccccc2cc1O | 136
27 | O=C(O)c1c2ccccc2cc2ccccc12 | 107
28 | COc1ccc(/C=C/C(=O)Nc2ccccc2C(=O)O)cc1OC | 167
29 | C=C[C@@H](C1=CC(=O)C(OC)=C(OC)C1=O)c1ccccc1 | 126
30 | COC1=CC(=O)C(C(=O)c2ccccc2)=CC1=O | 256
31 | CNC(=O)N(C)c1nnc(C(C)(C)C)s1 | 103
32 | C=C[C@](C)(O)CCC=C(C)C | 83
33 | CC(=O)O[C@H]1CC[C@@]2(C)C(CC[C@]3(C)C2CC=C2C4CC(C)(C)CC[C@]4(C)CC[C@]23C)C1(C)C (stereo partly drawn) | 88
34 | CCC(=O)OC1[C@@H]2CC3=C4CC(=O)O[C@@H](c5ccoc5)[C@]4(C)CCC3[C@@](C)(C2=O)[C@@H](CC(=O)OC)C1(C)C (stereo partly drawn) | 138
35 | O=C(O)c1cc([N+](=O)[O-])ccc1NCCCc1ccccc1 | 373
36 | C[C@H]1CC2C3CCC4=CC(=O)C=C[C@]4(C)[C@@]3(F)[C@@H](O)C[C@]2(C)[C@@]1(O)C(=O)CO (stereo partly drawn) | 241
37 | COC(=O)[C@@H]1OC(=O)C2OC23[C@@]1(C)CCC1[C@]2(C)C(C[C@@H](O)[C@]13C)C(C)(C)[C@H](OC(C)=O)C[C@@H]2OC(C)=O (stereo partly drawn) | 121
38 | CC(=O)CC(=O)CCC(=O)O | 81
39 | COC(=O)C(C)c1ccc(C(=O)c2cccs2)cc1 (stereo not drawn) | 93
40 | Cl.NNCc1ccccc1 | 115
41 | CC(NCCC(c1ccccc1)c1ccccc1)c1ccccc1.Cl (stereo not drawn) | 48
42 | O=C(O)c1cc2ccccc2c(Cc2c(O)c(C(=O)O)cc3ccccc23)c1O.OCCOCCN1CCN(C(c2ccccc2)c2ccc(Cl)cc2)CC1 | 115
43 | CC(=O)/C(=C\c1ccccc1)CC(=O)O | 142
44 | CC1=CC(=O)C2=C(C)CC[C@@H]3[C@H](OC(=O)[C@H]3C)[C@@H]12 | 109
45 | CCc1cccc(C)c1N(C(=O)CCl)C(C)COC (stereo not drawn) | 92
46 | CCOC(=O)OC(C)OC(=O)C1N2C(=O)C(NC(=O)[C@H](N)c3ccccc3)C2SC1(C)C.Cl (stereo partly drawn) | 124

Row | Structure (SMILES) | NORMALIZED SGLT1 ACTIVITY (%)
47 | NS(=O)(=O)c1cc(C(=O)O)c(NCc2ccco2)cc1Cl | 86
48 | Cc1cc2cc3c(C)cc(=O)oc3c(C)c2o1 | 203
49 | NS(=O)(=O)c1cc2c(cc1Cl)N=CNS2(=O)=O | 102
50 | COC(=O)C[C@H]1C(C)(C)[C@@H](O)[C@@H]2CC3=C4C=C(OC)O[C@@H](c5ccoc5)[C@]4(C)CCC3[C@@]1(C)C2=O (stereo partly drawn) | 82
51 | C[C@H](N)C(=O)NC(Cc1ccccc1)C(=O)O (mixture of isomers) | 114
52 | O=C1C=C2C(=CCOC2O)O1 (stereo not drawn) | 148
53 | COc1ccc(/C=C/c2cc(O)cc(O)c2)cc1 | 198
54 | CCCCOC(=O)c1ccc(N)cc1 | 129
55 | CCCCC(=O)N(Cc1ccc(-c2ccccc2-c2nn[nH]n2)cc1)[C@H](C(=O)O)C(C)C | 101
56 | CC1(C)S[C@@H]2[C@H](NC(=O)[C@H](N)c3ccccc3)C(=O)N2[C@H]1C(=O)[O-].[Na+] | 98
57 | C[C@H](CCC(=O)O)[C@H]1CCC2C3C(CC[C@@]21C)[C@@]1(C)CC[C@@H](O)C[C@H]1C[C@@H]3O (stereo partly drawn) | 173
58 | CNC1(C)C2CCC(C2)C1(C)C.Cl (stereo not drawn) | 97
59 | O=S(=O)(O)O.Oc1cccc2cccnc12 | 127
60 | O=C(OCc1ccccc1)c1ccccc1 | 92
61 | CC(C)[N+]1(C)C2CC[C@@H]1C[C@@H](OC(=O)C(CO)c1ccccc1)C2.[Br-] (stereo partly drawn) | 83
62 | CSC(=N)NCCC[C@@H](N)C(=O)O | 102
63 | C[C@@]12C(=O)OC(=O)[C@]1(C)[C@H]1CC[C@@H]2O1 | 112
64 | C#C[C@]1(O)CCC2C3CCC4=C(CCC(=O)C4)C3CC[C@@]21C (stereo partly drawn) | 203
65 | CO[C@@]1(NC(=O)CSCC#N)C(=O)N2C(C(=O)O)=C(CSc3nnnn3C)CS[C@@H]21 | 89
66 | C[C@@H]1[C@H](O)[C@@H](C)/C=C/C=C/C=C/C=C/C=C/C=C/C=C/[C@H](O[C@@H]2O[C@H](C)[C@@H](O)[C@H](N)[C@@H]2O)C[C@@H]2O[C@](O)(C[C@@H](O)C[C@@H](O)[C@H](O)CC[C@@H](O)C[C@@H](O)CC(=O)O[C@H]1C)C[C@H](O)[C@H]2C(=O)O | 93
67 | O=S1OCC2C(CO1)C1(Cl)C(Cl)=C(Cl)C2(Cl)C1(Cl)Cl (stereo not drawn) | 101
68 | CCOC(=O)C(C)(C)Oc1ccc(Cl)cc1 | 84
69 | CCC(Cc1c(I)cc(I)c(N)c1I)C(=O)O (stereo not drawn) | 209

Row | Structure (SMILES) | NORMALIZED SGLT1 ACTIVITY (%)
70 | O=C(O)/C=C(\CC(=O)O)C(=O)O | 98
71 | C[C@]12CC[C@@H]3c4ccc(O)cc4CC[C@H]3[C@@H]1CC[C@@H]2OC(=O)CCC1CCCC1 | 122
72 | O=C(CCCN1CCN(c2ccccn2)CC1)c1ccc(F)cc1 | 111
73 | C[C@@H]1OC(O[C@H]2[C@H](O)[C@@H](O)[C@H](OC[C@H]3O[C@@H](OC(=O)[C@]45CCC(C)(C)CC4C4=CCC6[C@@]7(C)CC[C@H](OC8OC[C@H](O)[C@H](O)[C@H]8OC8O[C@@H](C)[C@H](O)[C@@H](O)[C@H]8O)[C@@](C)(CO)C7CC[C@@]6(C)[C@]4(C)CC5)[C@H](O)[C@@H](O)[C@@H]3O)O[C@@H]2CO)[C@H](O)[C@H](O)[C@H]1O (stereo partly drawn) | 112
74 | Cc1ccc(C(=O)c2ccc(CC(=O)[O-])n2C)cc1.[Na+] | 115
75 | CC(=O)O[C@@](C)(CCC=C(C)C)C1CC=C(C)CC1 (stereo partly drawn) | 112
76 | CN1CC(=O)NC1=N | 105
77 | CCNC(=O)CC[C@H](N)C(=O)O | 97
78 | CC(C)=CCc1c2c(c3occ(-c4ccc(O)cc4)c(=O)c3c1O)C=CC(C)(C)O2 | 125
79 | O=C(C1CCCCC1)N1CC(=O)N2CCc3ccccc3C2C1 (stereo not drawn) | 154
80 | CCC(CCC(C)[C@H]1CCC2C3CC=C4C[C@@H](OC(C)=O)CC[C@]4(C)C3CC[C@@]21C)C(C)C (stereo partly drawn) | 110
81 | Cc1cc(=O)oc2cc(O)c(O)cc12 | 146
82 | CC(C)Cn1c(=O)n(C)c(=O)c2[nH]cnc21 | 143
83 | CNC(=O)O/N=C(/C)SC | 76
84 | CCCCC1C(=O)N(c2ccccc2)N(c2ccc(O)cc2)C1=O (stereo not drawn) | 109
85 | C[C@]12CCC(=O)C=C1CCc1ccc(O)cc12 | 127
86 | COCCOC(=O)C1=C(C)NC(C)=C(C(=O)OC(C)C)C1c1cccc([N+](=O)[O-])c1 (stereo not drawn) | 151
87 | c1ccc2c(Cc3c[nH]c4ccccc34)c[nH]c2c1 | 95
88 | C=CC1=C(C(=O)O)N2C(=O)[C@@H](NC(=O)/C(=N\O)c3csc(N)n3)[C@H]2SC1 | 98
89 | COc1c(Cl)c(C)c2c(c1Cl)OC(=O)c1c(C)c(Cl)c(OC)c(Cl)c1O2 | 113
90 | COc1ccc(-c2cc(=O)c3c(O)cc(O[C@H]4O[C@H](CO[C@@H]5O[C@@H](C)[C@H](O)[C@@H](O)[C@H]5O)[C@@H](O)[C@H](O)[C@H]4O)cc3o2)cc1 | 121
